According to the supplement of paper PMC11417369:
± gives the standard deviation of the averaged measurements. The list shows a part of the results.

System: PfAP2-I AP2 domain 3 (GST-tagged)
Test: gcPBM binding intensity (ln(normalized median fluorescence intensity)); higher = stronger DNA binding
Outline: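 In this array assay, P. falciparum DNA-binding domains with a GST tag, expressed in E. coli, were applied for 1 h to primer-extended double-stranded 36-bp intergenic genomic probes and negative controls on an Agilent 4 × 180k array. Bound protein was visualised with Alexa488 anti-GST antibody at 488 nm. Binding intensity is the highest Masliner-normalised natural-log median intensity across replicate spots of either probe orientation.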

Sequence	gcPBM binding intensity (ln)
AATAAAAAAATTAAAATTAAAAAATTAAAACTTAAA [CACACA_negctrl_site987]	6.96 ± 0.49
ACTATAAATATATACACATGCGCACACACAAGTGGG [TGCATGCA_site432]	8.34 ± 0.56
TACCTATAAAAGTACACACACACACGGATATAAATA [CACACA_site6569]	8.32 ± 0.18
ATTGATCTTTATTGTTGTACATTAAACGTTAATTTT [XGTACX_site1788]	7.86 ± 0.52
TCATACATTTTCCTTGCACACATTTATAATTAATGT [CACACA_site614]	8.78 ± 0.35
TAATTTATTGTACGTGCATGCTATTTTTTATTTTTA [TGCATGCA_site1059]	8.64 ± 0.68
TTGTAATATATAAAAGTGCATATATGGTTCCATATA [GTGCAC_site9544]	9.38 ± 0.14
ATATGTGAATAAAAATGTACGTGTTCTTTTTTTTTT [XGTACX_site320]	7.59 ± 0.4
AACAAAAAAACAAACACACACACACCCATATATATA [CACACA_site3652]	8.35 ± 0.53
TCAAAAATTTATATAGTGCAATATATATATAATGTA	10.6 ± 0.72
TGTGGCCCTGCGAGGTGGTCATCATGAATACGAAAA [XGTACX_site1526]	7.67 ± 0.55
TTAAAAAATATATGCGTGCACTAATATTTCATATGC	11.5 ± 0.2
TGAATTAACAAATAGACACACATATATATATATATA [CACACA_site3195]	9.34 ± 0.42
ACCATTTGTACTTACGCACACATAAAATATATATAT [CACACA_site1545]	9.19 ± 0.085
TACTATTTTTATAATACACACATATATTTGTGATAT [CACACA_site1775]	7.84 ± 0.44
TAAAATCAATGTTCTTGTACTTAAAATGTTTGTTCT [XGTACX_site5490]	7.53 ± 0.57
ATATATCTATATAGAAATGTATATATATATATGTGT [TGCATGCA_negctrl_site349]	7.96 ± 0.37
TATTATTCTACTATTATATTCTATATTATTTATAGT [CACACA_negctrl_site499]	7.55 ± 0.53
AAAATTAAATTATTTACACACAATATTAAAATATTT [CACACA_site3244]	7.61 ± 0.57
AGTATAAAATTTGGTTGTACATTTTTAAAAAAATTA [XGTACX_site7519]	7.79 ± 0.3
TATAATATAAAAAAAAGTACACGAATTTTTTTTCAG [XGTACX_site6105]	7.76 ± 0.2
AAATAAATTTGACCAGTGCAATAACTTTGTATACCT [GTGCAC_site9446]	11.2 ± 0.64
ATCCAAAAGAAAAATAGTACAGATATGAACAATATG [XGTACX_site6944]	7.73 ± 0.68

Sequence	gcPBM binding intensity (ln)
ACAATATATTTTTGAGCATGCGCAAAAGAGAATGCA [TGCATGCA_site566]	8.04 ± 0.38
AAAAGTTGTATTTGCACACATAAAAAAAAGATATTA [CACACA_site3840]	9.54 ± 0.2
AACCCCAAGCCGTACTGTACATATATTTTTATTTTA [XGTACX_site142]	8.12 ± 0.63
AAATTCAAACAAATTACACACATTTTTTTTTAATTT [CACACA_site3596]	7.72 ± 0.7
TCAAAGGAATTTTTATGTACATATAAACTTTATTCT [XGTACX_site3432]	7.73 ± 0.33
AAAAAAAAAAAAAAATGTACATATATATTTATATAT [XGTACX_site229]	7.97 ± 0.17
ATATCAATTTTTGGTGGTACGTAGGAAGTTTCAGAA [XGTACX_site6881]	8.19 ± 0.26
ACTTTAAAAAGATTCACACAAAATATATAAAAATAT [CACACA_site5334]	7.75 ± 0.39
AACATATACTGTTTATGTACACATTGTTATATTAAT [XGTACX_site4276]	7.82 ± 0.42
ATATAATTTAATTTCTGTACATAAGAGAAAAAACAA [XGTACX_site4865]	8.06 ± 0.39
TTATGCAAAAATAAATCAATATGTTGATATGTAAAT [GTGCAC_negctrl_site128]	8.17 ± 0.65
TACATTTTATGCATTTGTACACAAATAAATAAATAA [XGTACX_site2652]	8.07 ± 0.45
TTTTTTTTTTTTTATACACACATTAAAATAAAAAAG [CACACA_site3946]	8.07 ± 0.23
CTCTTCCTTAATTTTTGTACTTAAAATTTTTTTTTT [XGTACX_site1628]	8.08 ± 0.28
AAAGAAAAAAAAAAAACACACAAAAAAAATCAAAAT [CACACA_site2871]	7.62 ± 0.7
AAATTTATAAATTAAAGTACATATTTCTTGAATATT [XGTACX_site859]	7.53 ± 0.42
TATAGATACACTTTGTGTACATAAAAATTGTATTAA [XGTACX_site7137]	7.66 ± 0.29
TATTAAATTATATAGACACACATTATGTATATATAT [CACACA_site345]	8.22 ± 0.7
AAATGAAGATTTAAATGTACGAGAGGGTATACAAAT [XGTACX_site5075]	8.44 ± 0.84
CATAATATTAAATCAGTGCAAATATACAGAATAAAT [GTGCAC_site9786]	10.1 ± 0.17
GACTTCTCCATATACACACACCAACAAATATAAAAA [CACACA_site7331]	8.5 ± 0.42
TATGTATAAATATTAACACACAAAAAAAAAAAAAAA [CACACA_site6938]	8.06 ± 0.54
AATAAGCAGAAACACACACACAAAAAAAAAAAAAAA [CACACA_site719]	8.05 ± 0.7

Sequence	gcPBM binding intensity (ln)
GTTTGATAACACCTACAAACTCTTTTTTTTTTTTTT [CACACA_negctrl_site1134]	8.06 ± 0.7
ATATAAACAAAGCAGTGCACGTAAACAAAACATATA [CACACA_negctrl_site1076]	10.5 ± 0.42
TACGAAAGGTAATATTGTACATTACAAAATTTTATA [XGTACX_site5512]	7.64 ± 0.5
TATATATATCTTTTGGTGCATATTTCGAATATATGT	10.3 ± 0.4
TCGTTATCCATCTTCACACATATATATAGTAATATA [CACACA_site5492]	8.27 ± 0.49
AAAAAAAAAATTGAAAGTACACAAATGGGGTATTAT [XGTACX_site3960]	7.95 ± 0.69
TACTGTTTAAAATATACACACATAATCAAAAAAAAA [CACACA_site2510]	7.82 ± 0.58
TATATATTTACATATTGTACAATATAAAAATAATTA [XGTACX_site19]	7.62 ± 0.18
ATATTTATGTAATGTTTGATTTTTTTTTTATGTGTG [CACACA_negctrl_site1422]	7.76 ± 0.26
ACATATACATACATATGTACATATACATAAATATAT [XGTACX_site1285]	7.97 ± 0.46
CTATACAATAAAAATTGTACATACATATATGTTATA [XGTACX_site5309]	7.61 ± 0.54
AATTTTTCTTTTTTTTGTACAGAATATATATTTTAT [XGTACX_site1419]	7.77 ± 0.62
ATATAATTTATGTGCACACACTCCTATTTTTAGCTT [CACACA_site50]	10.45 ± 0.042
AAAAAGTAAAAGAAAGCACACACACCGGTATATATG [CACACA_site9281]	7.71 ± 0.69
AAAAAAAATTTTATCTGTACACATTTTTTTCTTTTT [XGTACX_site4229]	7.78 ± 0.63
TCGTAATAATATAAATGTACTTTATTAATTAAAAGA [XGTACX_site3416]	7.79 ± 0.46
ATAACAAAAATCCTTGTGCACTATTTTAATAGAGTC	11.4 ± 0.12
ACATTGCACCCGTGCACACATAGAAAAATAATTCTT [CACACA_site409]	11.1
GTAGTCCAAAAAAAGCGTACACAGAAAAAAAAAAAA [XGTACX_site4273]	8.56 ± 0.73
TACATCTTACTACTTATAATATAATATAGTATGAAT [TGCATGCA_negctrl_site8]	7.29 ± 0.45
CATTATGATTAAATATGTACATATTATTATATAAAT [XGTACX_site2477]	7.7 ± 0.38
ATGTAATTCTTTTACTTTTTTTTTTTTTTTTTTTTT [CACACA_negctrl_site979]	9.195 ± 0.021
TTATCATATGTATGCATACACACAAAAAATTATATA [CACACA_site397]	7.82 ± 0.32

Sequence	gcPBM binding intensity (ln)
CAAACAAATATATGTTGTACTTATTATATATACATA [XGTACX_site2998]	7.67 ± 0.3
ATAAATGAGCCATATTAAATCCGTTACACGGGTGTG [CACACA_negctrl_site1368]	7.26 ± 0.68
AACGGGTAATGCACAAAAAAAAAAAAATAAAATAAA [TGCATGCA_negctrl_site474]	11.4 ± 1
AAATTATTTTGTTATCATTATATATAGATTGAATAT [XGTACX_negctrl_site165]	7.55 ± 0.47
TTCTTTTAAATTAGCTGTACGGTTTTCTACATGCAT [XGTACX_site356]	7.74 ± 0.6
TAATATATATGTATGGCACACACGGATAAATATATA [CACACA_site930]	8.42 ± 0.58
AAAAAAAATATGAAAACACACATATATAAATAAATA [CACACA_site113]	7.58 ± 0.45
CATGCCTTTAAAAAGGTGCAAACATTTTCACAAACA	10.4 ± 0.35
AACAAAATAAGACACACACACAAATGTACCTATATA [CACACA_site7189]	7.96 ± 0.47
TCTTTTTTAAATAAAAGTACAAAAAAAAATAAAAAA [XGTACX_site2670]	8 ± 0.27
CGAATAAATATATGTAGTACATGTTGTAGATAATTT [XGTACX_site1218]	8.01 ± 0.48
TCTTTCTATTAAACATGTACTTGTCTAAAGACATAA [XGTACX_site8564]	7.89 ± 0.55
TATATATATTTAAATTGTACATATATTATTCATATG [XGTACX_site911]	7.87 ± 0.58
AATAATATATATTACTGTACTAATATAAGGGACATC [XGTACX_site3744]	8.14 ± 0.41
TTGTCAAAAATTACACACATAAATGAATAAATAAAT [XGTACX_negctrl_site541]	7.59 ± 0.57
ATTTATGAAAAAAATACATGCATGTCCATATAAATT [TGCATGCA_site505]	7.8 ± 0.72
TTATTTTCTACAAATTGTACATATTTTTTACTACTC [XGTACX_site1394]	8.22 ± 0.47
ACATATATATATATTACACACACACTAATAAAATAA [CACACA_site7920]	8.14 ± 0.33
TTTCAAGAATTATATAAACACACATACATACACCCA [CACACA_site8592]	8.43 ± 0.18
TTTTATAATTTATCTAAAAAAAAATAAAATAAAATG [TGCATGCA_negctrl_site429]	7.66 ± 0.36
